# Results from the supplement of paper PMC10126150.
# Values marked as one replicate rest on one cluster of the flow cell; about a third of the high ones do not repeat.
# Tested on: ATP
# Test: switch fluorescence ratio, 500 uM ATP over buffer (Cy3 cluster intensity, sum of 5 cycles each) (fold (ratio)); higher = stronger signal-on switching upon ATP binding; sequences stand for … in TCGTCGGCAGCGTCAGATGTGTATAAGAGACAGTTTTTTTTTTTTTTTTTTTTTTTTT…TC
# Conditions: aptamer strand: ATP DNA aptamer (quencher-CACCTGGGGGAGTATTGCGGAGGAAGG + anchor), 100 nM annealed; ATP concentration: 500 uM; one replicate
# Outline: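 Between each of five buffer/ATP cycles, the flow-cell was stripped with NaOH and re-annealed. Each cycle imaged Cy3-labelled switching-strand clusters, annealed to 100 nM quencher-labelled ATP aptamer on a modified Illumina MiSeq flow-cell, first in selection buffer and then after 15 min with 500 uM ATP at 22 °C. The fluorescence ratio is summed target-cycle over summed buffer-cycle Cy3 intensity per cluster, averaged per switch-domain sequence, with clusters outside 100-1000 RFU excluded.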
# 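Further: ATP exposure 15 min at 22 °C before imaging.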
row,Sequence,switch fluorescence ratio
1,TACGTCTTAC,1.27
2,AACCTTTTAT,1.03
3,TAGTGCAGGT,1.01
4,CAATCTGCG,1.04
5,GGCTTTATTA,0.963
6,CTGATATTGC,1.06
7,TGCCCGGCGT,1.04
8,ACTATTATGT,1.04
9,AAACGAAGT,1.03
10,CCATTGTCTG,0.984
11,GGCGAGGTCG,0.985
12,AGGCGGGCAT,0.961
13,CGTAACTCAT,1
14,GTATCTTTGC,0.982
15,GCTTCACCG,1.13
16,ACATGCGGGT,1.06
17,TAGTACAGTC,0.91
18,TAGTGCGTCC,1.06
19,CGGTGTTTTG,1.02
20,TCAAGATTGA,0.998
21,GCTTTCACCA,1.03
22,TCGCCAGTAC,3.66
23,CATCAGAGAT,0.983

row,Sequence,switch fluorescence ratio
1,AGACTGATTC,1.01
2,TTGTTACG,0.981
3,CGCGGCAAAT,1.56
4,TCGATGTTAA,1.02
5,CACGTTAATT,1.15
6,TGCACAGCAC,1.01
7,ATGCGGATAC,1.8
8,GCTTCCATTA,1.03
9,CCATGTGCGT,1.03
10,CGGCGACTCA,0.993
11,TCAAAATAAT,1.02
12,CCATCAATGG,1.08
13,ACTGGACGCG,1.1
14,GAAGGGAGGG,0.968
15,TTAGATACGT,0.979
16,ATAGTGAACT,1.01
17,CTCCTGAAT,1.11
18,TACGGATGT,1.04
19,CGGGCAAACG,0.981
20,ATTACACTCT,1.02
21,GTGAAACTGT,1
22,TACAACATGT,1
23,TCTTCTGGGT,0.954

row,Sequence,switch fluorescence ratio
1,ATATTATCGC,1.02
2,GGGACCTAGT,1.03
3,CGGTTTCAGC,1.04
4,GGCGAGTCGA,1
5,TGAATGGGC,0.977
6,CCGTGCCGGG,0.996
7,GGCAATTGCT,0.99
8,TTAGGGTACT,1.02
9,ACGAAGATAG,1.06
10,GCACACATTG,1.07
11,ACTTTCCGAG,1.63
12,CGTGTCACGG,0.996
13,GGGAATTCGT,1.01
14,GTGTGTGCGC,0.99
15,GGTAATCAAA,1.04
16,TTCTTCTCCT,0.972
17,CGCTGCTGA,1.04
18,ATGGATTACA,1.03
19,TATGTAACTT,1.01
20,TGCTTGGGA,1.01
21,CGATTTAGCA,1.08
22,ACAAGCCGGA,1.02
23,CGGTGTGCTC,1.04

row,Sequence,switch fluorescence ratio
1,CCTGTTTCCA,0.998
2,TGGCCTCTTT,0.987
3,AGGTAAAGCG,1
4,TTCCAACTTT,0.95
5,ATATGACGTT,0.993
6,TGTGATGACC,0.991
7,TTGTAAAGGG,0.955
8,CCGCATGTAG,3.72
9,GACCTAATCT,1.06
10,CCCGTGGGGG,1.08
11,TTACCTTACG,1.58
12,AGTCGAGCTG,1.01
13,TGCATATAAA,1.2
14,AGCTTGTATC,1
15,CACAAACATA,1.11
16,AGTCGTTAGA,1.04
17,GAGAGATGCG,1.11
18,GTGCATGTGC,1.01
19,AGAAGCACGA,1.15
20,ATGACACACA,1.35
21,AAACCGACTC,2.72
22,TGATGCTGGT,0.997
23,ACCGCGTTTG,1.04

row,Sequence,switch fluorescence ratio
1,TTAATTCCAA,1.04
2,CGGTACTGGA,1.05
3,ACTCAATTTG,1.02
4,ATTGGATCAT,0.985
5,TATACCTGGG,1.02
6,ATATCTTTGC,0.965
7,TTACAATAAT,1
8,TGCTATTGCA,1.06
9,AGGGTTCGTA,0.979
10,CCTTACTCTT,1.41
11,TAATGGATTA,1
12,TTACCGGTTT,1.03
13,TTCGCATGAT,1.18
14,TTCAGCAGGC,1.17
15,CTCGATGGAC,1.07
16,CGGCGTTTT,0.998
17,TCATCTCACG,1.09
18,TACATTCGAC,1.03
19,TGACTGGT,0.986
20,TGGAGTCGCT,1.01
21,CTCGCGGTTA,1.02
22,GATGGGGCCA,0.969
23,TATTTTCGAT,1.09

row,Sequence,switch fluorescence ratio
1,AGCGGGTAAC,1
2,AAGCTCTTGC,1.01
3,TGAGGTCTCA,0.992
4,CATGTCTTCT,0.977
5,AGTCTTCGC,0.91
6,AAGCCCGCGC,0.983
7,TTTACGCGCC,1.1
8,GAGCGGTGTC,0.978
9,CTCCAGGCTA,2.32
10,GTTTCCAGTA,1.02
11,AAAGAGTTAC,0.985
12,AGCTATAAA,0.982
13,AACCTCTCT,1.04
14,GTTGGGTAGA,1.02
15,ACCTGCGATC,2.88
16,TTGCGACCGT,0.948
17,ATGGGGAGC,1.14
18,TTCTTTTAAG,1.02
19,AGGGTCGGGG,1.06
20,CATGAGGATG,1.01
21,TGAGGCGCAG,0.98
22,CTAGAGAGG,0.959
23,GCCTAACTTG,1.01

row,Sequence,switch fluorescence ratio
1,ACTTGACT,1.19
2,AAGATGGGAC,0.965
3,GCAGTCCGCT,1.17
4,CATTTGCTA,1.1
5,AAGACGGTCG,1.32
6,GCCACTGCGT,1.02
7,TGAGGTAGTT,1.02
8,TATCTTCGC,1.06
9,ATGGGATGTT,0.988
10,CATGCCCGGT,1.06
11,GAGTCGCAGA,0.987
12,ACCATATAAG,1.06
13,TATGCGACTC,1.06
14,GCTTTAACCG,1.02
15,GCTAGGCTTC,0.967
16,TGTGAATAAA,1.02
17,GTCGTCCGGT,1.02
18,GGAGGCAATC,2.17
19,GGTACTTTAT,0.994
20,CATGTTGAGA,0.977
